Here are results for one compound from PubChem BioAssay (NCI).

Molecules are shown by their SMILES.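 Each compound was tested at five concentrations against cells in 96-well plates for 48 hours. At the GI50, growth is halved. Definition used: TGI = concentration required for complete inhibition of growth.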

The test system of the assay is NCI-H322M lung. The assay can be described thus: inhibition of tumour cell growth, NCI panel, 48 h.

Take `COc1ccc2c(c1)Oc1nc(N)c(C#N)c(N)c1C2Sc1ccc(C)cc1` (configuration not stated): the GI50 is 1650 nM and the TGI amounted to 3020 nM.
